Laboratory results: US5783557A, “THF-γ2 analogs and pharmaceutical compositions comprising them” (Yeda Research and Development Company Ltd at Weizmann …, priority 1993, dated 1998)
At least one peptide structure holds a part that was inferred or is arguable (an end, a ring closure or a residue). Non-standard residues stand in square brackets, D forms with d. Residues, ends and D or L forms follow the SMILES beside them. Groups on a side chain read outwards from the residue. No end group written: not given here. *: point of attachment. Biotin = O=C1N[C@H]2[C@H](CS[C@H]2CCCCC(=O)*)N1; Ahx = NCCCCCC(=O)O

Experiments:
[1] = test system: GM-CFC from mouse bone marrow; assay: Effect on GM-CFC from mouse bone marrow; assay type: cell-based; design: key: +++: strong enhancement, as THF-γ2; ++ and +: medium and weak enhancement, lower than THF-γ2; ++ and +: medium and weak enhancement, lower than THF-γ2; --no activity; settings: graded against THF-γ2; Example 1, section 1.2
Procedure: 1.2. Effect of THF-γ2 on GM-CFC From Mouse Bone Marrow. In this second bioassay, the effect of THF-γ2 and its analogs in the enhancement of the number of colonies of GM-CFC in the presence of growth factors is determined. 1.2.1. […] Tibia and femur were removed from BALB/c female mice (6-8 weeks old). The tip of the bone was cut and DMEM with 2.5% FCS was flushed into the bone using a 1 ml syringe with a 26 G needle. This procedure was repeated twice, the cells were then washed in medium and counted in the presence of trypan blue. 1.2.2 Preincubation with THF-γ2. Bone marrow cells suspension was prepared in DMEM with 2.5% FCS at a concentration of 15×10^6 /3.0 ml. THFγ2 diluted in DMEM was added in 20 μl aliquots, control cells received 20 μl DMEM. Cell suspensions in conical tissue culture tubes were incubated at 37° C./8% CO2 for 1 h. Cells were then collected, washed and counted in trypan blue. Cell suspensions were adjusted at 1×10^6 /ml. 1.2.3. GM-CFC assay. Bone marrow cells (4×10^5) are suspended in methylcellulose (0.8%), FCS (20%) and conditioned medium of 14FIL3 CB6 cell line (5%) in a total volume of 4 ml of DMEM. After vigorous mixing, the suspension is seeded into 30 mm diameter plates with the aid of a 3.0 ml syringe (21G needle, in triplicate). The small plates are placed in a large plate (20 cm) alongside one open, small plate containing water, in order to maintain high humidity, and incubated at 37° C. in an 8% CO2 incubator for 7 days. Colonies are counted using an inverted microscope at low magnification.

[2] = test system: mouse spleen cells; assay: ConA-induced IL-2 production; assay type: cell-based; design: key: +++: strong enhancement, as THF-γ2; ++ and +: medium and weak enhancement, lower than THF-γ2; ++ and +: medium and weak enhancement, lower than THF-γ2; --no activity; settings: graded against THF-γ2; Example 1, section 1.1
Procedure: 1.1. ConA-Induced IL-2 Production
In this bioassay, the effect of THF-γ2 and its analogs in enhancing the secretion of ConA-induced IL-2 from murine spleen cells is determined.
1.1.1. Preparation of cells and preincubation with THF-γ2. Pooled spleen cells (10^7 cell/ml) from five female C3B6F1 (C3HeB/FeJ×C57BL/6J) mice (obtained from Jackson Labs, U.S.A.) aged 6-8 weeks are seeded in 24-well plates (Costar, Cambridge, Mass, U.S.A.). The cells are prepared in medium RPMI-1640 supplemented with penicillin (100 u/ml), streptomycin (100 μg/ml), 2 mM glutamine, 50 μM 2-mercaptoethanol (2-ME) and 20 mM HEPES. THF-γ2 in various concentrations in phosphate buffered saline (PBS), is added in 20 μl aliquots, while control cultures receive 20 μl PBS. The cell cultures are incubated for 20 h in a humidified incubator of 5% CO2 /95% air and 37° C.
1.1.2. Induction of IL-2. ConA (Concanavalin A, ConA, 3×crystalline, Bio-Makor, Ness-Ziona, Israel) is added to the wells in 1 ml fresh medium (as in 1.1.1 above) at suboptimal concentration (1-2.5 μ/ml). After 3 h the plates are centrifuged at 1200 rpm (Sorvall GLC-3 centrifuge), the supernatant is removed and replaced by 1 ml of fresh medium (as in 1.1.1 above) and the cultures are further incubated for 20 h. The plates are then centrifuged, the supernatants are collected and kept at -20° C.
1.1.3. Assay on CTL-D, an IL-2 dependent T cell line. Supernatants from 1.1.2 above (50 μl) are added at serial two fold dilutions (1:2-1:64), in triplicate, to U-bottomed microwells (Greiner, Germany) containing 1×10^4 CTL-D cells in 50 μl RPMI-1640 (as in 1.1.1 above) supplemented with 1 mM sodium pyruvate, 1 mM non-essential amino acids and 10% FCS (Beth-Haemek, Israel). After incubation of 48 h at 37° C./5% CO2, the proliferation is assessed by the MTT colorimetric assay (T. Mosmann, J. Immunol. Methods 65: 55-63, 1983). Results are expressed in units/ml calculated using a standard murine IL-2 preparation (according to S. Gillis et al., J. Immunol. 120: 2027, 1978).

Molecule | GM-CFC: Enhancement of the number of GMCFC from mouse bone marrow [1] | IL-2: Enhancement of ConA induced IL2 production in mouse spleen cells [2]
CC(C)C[C@H](N)C(=O)N[C@@H](CCC(=O)O)C(=O)N[C@@H](CC(=O)O)C(=O)NCC(=O)N1CCC[C@H]1C(=O)N[C@@H](CCCCN)C(=O)N[C@@H](Cc1ccccc1)C(=O)N[C@H](CC(C)C)C(=O)N[C@@H](CCCCNC(=O)CCCCCNC(=O)CCCC[C@@H]1SC[C@@H]2NC(=O)N[C@@H]21)C(=O)O [K^9(ε-AC-biotinyl),[D]L^8 -THF-γ2] (H-LEDGPKF[dL]K([Ahx-Biotin])-OH) | ++ | 
CC(C)C[C@H](NC(=O)[C@H](Cc1ccccc1)NC(=O)[C@H](CCCCN)NC(=O)[C@@H]1CCCN1C(=O)CNC(=O)[C@H](CC(=O)O)NC(=O)[C@H](CCC(=O)O)NC(=O)[C@H](CC(C)C)NC(=O)[C@@H](N)CCCCNC(=O)CCCCCNC(=O)CCCC[C@@H]1SC[C@@H]2NC(=O)N[C@@H]21)C(=O)O [K^-1(ε-AC-biotinyl) -THF-γ2] (H-K([Ahx-Biotin])LEDGPKFL-OH) | + | -
CC(C)C[C@H](NC(=O)[C@H](Cc1ccccc1)NC(=O)[C@H](CCCCN)NC(=O)[C@@H]1CCCN1C(=O)CNC(=O)[C@H](CC(=O)O)NC(=O)[C@H](CCC(=O)O)NC(=O)[C@H](CC(C)C)NC(=O)[C@@H](C)N)C(=O)O [[D]A^-1 -THF-γ2, [D]-Ala-Leu-Glu-Asp-Gly-Pro-Lys-Phe-Leu] (H-[dA]LEDGPKFL-OH) | ++ | ++
ALEDGPKFLA [A^-1,A^9 -THF-γ2] | + | 
LDGPKFL [des-E^2 -THF-γ2] | + | 
LEAGPKFL [A^3 -THF-γ2, Leu-Glu-Ala-Gly-Pro-Lys-Phe-Leu] | +++ | +++
LEAGPKFL-NH2 [A^3 -THF-γ-NH2] | - | +
LEDDPKFL [D^4 -THF-γ2, Leu-Glu-Asp-Asp-Pro-Lys-Phe-Leu] | - | ++
LEDGAKFL [A^5 -THF-γ2] | - | +
LEDGKKFD [K^5,D^8 -THF-γ2] | + | -
LEDGKKFL [K^5 -THF-γ2] | - | +
LEDGPDFL [D^6 -THF-γ2] | - | +
LEDGPIFL [I^6 -THF-γ2] | + | -
LEDGPKAL [A^7 -THF-γ2, Leu-Glu-Asp-Gly-Pro-Lys-Ala-Leu] | + | +
LEDGPKEL [E^7 -THF-γ2] | + | -
LEDGPKFH [H^8 -THF-γ2] | + | -
LEDGPKFK [K^8 -THF-γ2] | - | +
LEDGPKFLI [I^9 -THF-γ2, Leu-Glu-Asp-Gly-Pro-Lys-Phe-Leu-Ile] | +++ | ++
REDGPKFL [R^1 -THF-γ2] | + | 
YALEDGPKFL [Y^-2,A^-1 -THF-γ2, Tyr-Ala-Leu-Glu-Asp-Gly-Pro-Lys-Phe-Leu] | ++ | 
YALEDGPKFLA [Y^-2,A^-1,A^9 -THF-γ2] | + | 
